In publication PMC12820563 one finds binding signal (RPM ratio (pull-down/input)) data, which are given here for 40 sequences.

The other results are listed elsewhere or left out. The list includes weakly bound sequences.

This experiment deals with T1, MBP-FoxP3dN (UniProt Q99JB6).
T1 sequence: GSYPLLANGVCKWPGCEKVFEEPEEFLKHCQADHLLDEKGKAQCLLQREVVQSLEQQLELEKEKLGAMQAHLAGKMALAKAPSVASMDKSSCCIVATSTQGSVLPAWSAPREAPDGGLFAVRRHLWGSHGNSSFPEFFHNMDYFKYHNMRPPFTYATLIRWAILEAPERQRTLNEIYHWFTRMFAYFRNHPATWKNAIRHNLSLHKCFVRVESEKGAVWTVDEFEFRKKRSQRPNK
Put plainly: PD-seq (MBP pull-down with sequencing). The following applies: 20 mM Tris-HCl pH 7.5, 100 mM NaCl, 1.5 mM MgCl2, 0.4 uM protein, 0.1 uM dsDNA library, 30 min, room temperature, amylose pull-down; high values mean tight binding; double strand, one strand shown.
Regarding “GATGATTGTTCTCCCAGCTGATGAATTAAAGAGTTCGAGTAAACAAATTTTCCTAATCTTTCTGTTCAAGCGCCATCTAC”, the binding signal (RPM ratio (pull-down/input)) was 0.326. As for “GATGATTGTTCTCCCAGCTGATGAATTTGGGATGTCGAGTAAACAAATTTTCCTAATCTTTCTGTTCAAGCGCCATCTAC”, the figure is 0.587. For the sequence “GATGATTGTTCTCCCAGCTGATGAATTCAAGCCCTCGAGTAAACAAATTTTCCTAATCTTTCTGTTCAAGCGCCATCTAC”, the binding signal (RPM ratio (pull-down/input)) turned out to be 0.48. “GATGATTGTTCTCCCAGCTGATGAATTACTTCAATCGAGTAAACAAATTTTCCTAATCTTTCTGTTCAAGCGCCATCTAC”: the binding signal (RPM ratio (pull-down/input)) came out at 0.25. As for “GATGATTGTTCTCCCAGCTGATGAATTTATCCAGTCGAGTAAACAAATTTTCCTAATCTTTCTGTTCAAGCGCCATCTAC”, the figure is 0.301; as for “GATGATTGTTCTCCCAGCTGATGAATTTGGACAATCGAGTAAACAAATTTTCCTAATCTTTCTGTTCAAGCGCCATCTAC”, 0.497.

In the case of “GATGATTGTTCTCCCAGCTGATGAATTGTGACTATCGAGTAAACAAATTTTCCTAATCTTTCTGTTCAAGCGCCATCTAC”, the binding signal (RPM ratio (pull-down/input)) turned out to be 1.16. As for “GATGATTGTTCTCCCAGCTGATGAATTTTGATACTCGAGTAAACAAATTTTCCTAATCTTTCTGTTCAAGCGCCATCTAC”, the figure is 1.31; as for “GATGATTGTTCTCCCAGCTGATGAATTTCCTTAGTCGAGTAAACAAATTTTCCTAATCTTTCTGTTCAAGCGCCATCTAC”, 0.223; as for “GATGATTGTTCTCCCAGCTGATGAATTATTGGGTTCGAGTAAACAAATTTTCCTAATCTTTCTGTTCAAGCGCCATCTAC”, 0.724. The figure for “GATGATTGTTCTCCCAGCTGATGAATTGCCCAGGTCGAGTAAACAAATTTTCCTAATCTTTCTGTTCAAGCGCCATCTAC” is 0.296; for “GATGATTGTTCTCCCAGCTGATGAATTCCAAGTGTCGAGTAAACAAATTTTCCTAATCTTTCTGTTCAAGCGCCATCTAC” it is 0.347. For the sequence “GATGATTGTTCTCCCAGCTGATGAATTCCAATGTTCGAGTAAACAAATTTTCCTAATCTTTCTGTTCAAGCGCCATCTAC”, the binding signal (RPM ratio (pull-down/input)) came to 0.646. Take “GATGATTGTTCTCCCAGCTGATGAATTGTAGCCATCGAGTAAACAAATTTTCCTAATCTTTCTGTTCAAGCGCCATCTAC”: the binding signal (RPM ratio (pull-down/input)) is 1.99. On to “GATGATTGTTCTCCCAGCTGATGAATTCCCGCTATCGAGTAAACAAATTTTCCTAATCTTTCTGTTCAAGCGCCATCTAC”, for which the binding signal (RPM ratio (pull-down/input)) came to 0.638. For “GATGATTGTTCTCCCAGCTGATGAATTGCCACATTCGAGTAAACAAATTTTCCTAATCTTTCTGTTCAAGCGCCATCTAC”, the binding signal (RPM ratio (pull-down/input)) amounted to 1.63.

In the case of “GATGATTGTTCTCCCAGCTGATGAATTGCATCAATCGAGTAAACAAATTTTCCTAATCTTTCTGTTCAAGCGCCATCTAC”, the binding signal (RPM ratio (pull-down/input)) came out at 3.31. As for “GATGATTGTTCTCCCAGCTGATGAATTGCAGTGCTCGAGTAAACAAATTTTCCTAATCTTTCTGTTCAAGCGCCATCTAC”, the figure is 0.811; as for “GATGATTGTTCTCCCAGCTGATGAATTTAAGGCCTCGAGTAAACAAATTTTCCTAATCTTTCTGTTCAAGCGCCATCTAC”, 0.484; as for “GATGATTGTTCTCCCAGCTGATGAATTAGGTTCGTCGAGTAAACAAATTTTCCTAATCTTTCTGTTCAAGCGCCATCTAC”, 0.786. The figure for “GATGATTGTTCTCCCAGCTGATGAATTCCAATGATCGAGTAAACAAATTTTCCTAATCTTTCTGTTCAAGCGCCATCTAC” is 0.367; for “GATGATTGTTCTCCCAGCTGATGAATTCTTCGTCTCGAGTAAACAAATTTTCCTAATCTTTCTGTTCAAGCGCCATCTAC” it is 0.284. As for “GATGATTGTTCTCCCAGCTGATGAATTGCATGTGTCGAGTAAACAAATTTTCCTAATCTTTCTGTTCAAGCGCCATCTAC”, the figure is 2.29; as for “GATGATTGTTCTCCCAGCTGATGAATTGATCGGGTCGAGTAAACAAATTTTCCTAATCTTTCTGTTCAAGCGCCATCTAC”, 0.262; as for “GATGATTGTTCTCCCAGCTGATGAATTGAAGGCATCGAGTAAACAAATTTTCCTAATCTTTCTGTTCAAGCGCCATCTAC”, 0.843.

Consider “GATGATTGTTCTCCCAGCTGATGAATTACCTTCATCGAGTAAACAAATTTTCCTAATCTTTCTGTTCAAGCGCCATCTAC”, for which the binding signal (RPM ratio (pull-down/input)) was determined as 0.374. The figure for “GATGATTGTTCTCCCAGCTGATGAATTAGGGGAGTCGAGTAAACAAATTTTCCTAATCTTTCTGTTCAAGCGCCATCTAC” is 0.337; for “GATGATTGTTCTCCCAGCTGATGAATTGCGTATGTCGAGTAAACAAATTTTCCTAATCTTTCTGTTCAAGCGCCATCTAC” it is 3.03.

Regarding “GATGATTGTTCTCCCAGCTGATGAATTTAGCGGTTCGAGTAAACAAATTTTCCTAATCTTTCTGTTCAAGCGCCATCTAC”, the binding signal (RPM ratio (pull-down/input)) came out at 0.737. The figure for “GATGATTGTTCTCCCAGCTGATGAATTTCATAAATCGAGTAAACAAATTTTCCTAATCTTTCTGTTCAAGCGCCATCTAC” is 0.207. Consider “GATGATTGTTCTCCCAGCTGATGAATTAATCGTATCGAGTAAACAAATTTTCCTAATCTTTCTGTTCAAGCGCCATCTAC”, for which the binding signal (RPM ratio (pull-down/input)) was 0.651. Consider “GATGATTGTTCTCCCAGCTGATGAATTAATTAGCTCGAGTAAACAAATTTTCCTAATCTTTCTGTTCAAGCGCCATCTAC”, for which the binding signal (RPM ratio (pull-down/input)) is 1.1. As for “GATGATTGTTCTCCCAGCTGATGAATTAGCACTATCGAGTAAACAAATTTTCCTAATCTTTCTGTTCAAGCGCCATCTAC”, the figure is 0.544. As for “GATGATTGTTCTCCCAGCTGATGAATTAGGAACGTCGAGTAAACAAATTTTCCTAATCTTTCTGTTCAAGCGCCATCTAC”, the figure is 0.293.

Take “GATGATTGTTCTCCCAGCTGATGAATTGAGCAACTCGAGTAAACAAATTTTCCTAATCTTTCTGTTCAAGCGCCATCTAC”: the binding signal (RPM ratio (pull-down/input)) was determined as 4.74. As for “GATGATTGTTCTCCCAGCTGATGAATTGGAGAATTCGAGTAAACAAATTTTCCTAATCTTTCTGTTCAAGCGCCATCTAC”, the figure is 0.639.

In the case of “GATGATTGTTCTCCCAGCTGATGAATTTCCGGCGTCGAGTAAACAAATTTTCCTAATCTTTCTGTTCAAGCGCCATCTAC”, the binding signal (RPM ratio (pull-down/input)) turned out to be 0.353. The figure for “GATGATTGTTCTCCCAGCTGATGAATTGTAGTCCTCGAGTAAACAAATTTTCCTAATCTTTCTGTTCAAGCGCCATCTAC” is 0.959; for “GATGATTGTTCTCCCAGCTGATGAATTAGCAGATTCGAGTAAACAAATTTTCCTAATCTTTCTGTTCAAGCGCCATCTAC” it is 0.29; for “GATGATTGTTCTCCCAGCTGATGAATTTCTGTTGTCGAGTAAACAAATTTTCCTAATCTTTCTGTTCAAGCGCCATCTAC” it is 1.28.
